Source: the supplement of paper PMC3334620
The full ranking holds about 33,000 sequences; the median of “E-score (-0.5 to 0.5)” is about -0.041, and the highest 2% start at about 0.37. The list shows a part of the results.

molecular target: T1, Ecm22 (UniProt Q05958); experiment: PBM E-score (8-mer binding enrichment) (E-score (-0.5 to 0.5)); higher = stronger / more preferred TF binding; most listed sequences are background and not binding sites; conditions: protein concentration: 200 nM; construct: GST-full length
T1 sequence: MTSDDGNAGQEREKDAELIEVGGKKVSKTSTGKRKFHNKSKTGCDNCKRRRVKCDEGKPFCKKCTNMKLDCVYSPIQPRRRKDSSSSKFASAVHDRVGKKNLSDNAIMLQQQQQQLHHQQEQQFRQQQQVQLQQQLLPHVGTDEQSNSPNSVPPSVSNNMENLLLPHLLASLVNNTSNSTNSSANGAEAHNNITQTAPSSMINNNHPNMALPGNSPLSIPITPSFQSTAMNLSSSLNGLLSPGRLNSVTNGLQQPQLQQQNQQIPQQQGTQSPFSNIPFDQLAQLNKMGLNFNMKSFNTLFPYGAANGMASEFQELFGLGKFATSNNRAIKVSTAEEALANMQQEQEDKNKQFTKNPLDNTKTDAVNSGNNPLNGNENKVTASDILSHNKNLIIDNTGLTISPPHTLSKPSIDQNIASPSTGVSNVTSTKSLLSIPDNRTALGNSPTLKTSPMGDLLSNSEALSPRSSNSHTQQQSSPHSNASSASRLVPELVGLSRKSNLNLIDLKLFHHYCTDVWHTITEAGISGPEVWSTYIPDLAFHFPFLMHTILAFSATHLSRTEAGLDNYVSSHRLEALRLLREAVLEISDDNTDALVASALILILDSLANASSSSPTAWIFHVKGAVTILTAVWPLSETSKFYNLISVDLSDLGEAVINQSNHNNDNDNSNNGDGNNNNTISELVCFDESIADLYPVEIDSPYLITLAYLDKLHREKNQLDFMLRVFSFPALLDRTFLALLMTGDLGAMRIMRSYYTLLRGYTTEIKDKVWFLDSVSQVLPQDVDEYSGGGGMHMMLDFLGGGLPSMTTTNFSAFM
Procedure, shortened: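 E-scores (a modified Wilcoxon-Mann-Whitney statistic) were assigned by the Universal PBM Analysis Suite to every ungapped eight-base word pooled with its reverse complement. The input came from universal all-10-mer Agilent arrays made double-stranded by primer extension and probed with GST-tagged yeast transcription factors at about 100-200 nM. Fluorescent anti-GST detected bound protein, and masliner normalised the scans.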

Sequence | PBM E-score
AAAGGATC | -0.174
CGTCATCC | -0.0605
AGGACGTC | -0.135
AGCAGAGC | 0.0272
ATAAAGGG | -0.03
GCCTTGCA | -0.181
ACAATGCC | -0.193
AGCATCTC | -0.166
CCTCTAAA | -0.193
GCACAAAA | 0.0309
ACCCTCTC | -0.214
CACCATCG | -0.161
GACTGTAC | 0.253
CTCGCAAA | 0.319
GTCCCTAA | -0.207
CTTGGATA | -0.135
ACCAGTAG | -0.171
AAGGGTCT | -0.327
GTTTAGGA | 0.152
ATTGGCGA | -0.0395
AGAGCGGA | 0.141
AATCACCT | -0.0815
AAGGACTT | -0.342
ATCTCATC | -0.0663
AGCCTCAT | -0.135

Sequence | PBM E-score
AAACTCTC | 0.125
CGAACCCA | 0.167
CATGGTTA | -0.0238
AGTGTGAG | -0.154
CTGTACGA | 0.48
CAAATCCA | -0.131
CGCCACCG | 0.0614
CCCGCAAA | 0.148
TACCTAGA | -0.0531
AAACAAAA | 0.021
ACAAAAAA | -0.0405
AACTAGGG | -0.221
CACTGTCA | -0.0998
CTCGCCTA | 0.138
CGCGAGAA | 0.119
CAGGAAAA | -0.019
CCGTATGC | 0.268
CAGAAGGA | -0.338
GTCCATGA | -0.343
GCGCGACC | 0.173
AACCTAAG | -0.172
TTCTTAAA | -0.107
CAGTTAAA | 0.186
AGCCCTCG | 0.118
AACAGATG | -0.183

Sequence | PBM E-score
GGAAATCC | -0.00159
GACGACGA | 0.0563
AAAAACCA | 0.0285
GCGATAAC | 0.106
CATGTGAG | -0.258
ATACGTCG | 0.286
CGACCATA | 0.164
AGCCCGCT | -0.196
TACAAATA | 0.0504
AAAGACAT | -0.243
AGGGGCAT | -0.116
AAAGTTAC | -0.014
CATTTGTA | -0.0327
CGGACCAC | 0.136
AGACTGAG | -0.159
GGTATTAA | -0.00603
ACGGACTG | 0.0978
CGCCTGCA | -0.292
CGAACTAA | 0.122
ATTGAGTG | -0.0582
GATCAGGC | -0.0698
AGTCTAGA | -0.316
TCCAAGGA | -0.0814
GATCGACA | 0.0362
CGTGCTAA | -0.112

Sequence | PBM E-score
CCATTTGA | -0.251
ACCCTCCC | -0.142
GTCGCAGA | 0.123
AATCTTGT | -0.0453
TACTCCAA | -0.0514
TCTTCGCA | 0.191
CTTCAGTC | -0.198
AACGAAGG | 0.398
ACGTCAAC | 0.0318
ACAGCTCC | -0.133
GATGTTCC | -0.0613
AAATGTAG | -0.144
TACAATCA | 0.0252
AAGAGATA | 0.119
ATTCGTAC | 0.468
GAGCACTA | 0.0512
ATCGCAAA | 0.11
AGCGTTGG | -0.211
GCTGCCCA | -0.194
AAGATGGA | -0.204
GCTAATCA | 0.0219
ATTCGCTC | 0.236
CGAAGTCA | 0.0792
TATTGCCA | -0.0639
GCGCTGGA | -0.201

Sequence | PBM E-score
GATCACGA | 0.0215
CCCTACGG | -0.215
CGCGTAGC | 0.214
GACACTAC | 0.0531
CTAGAATA | 0.139
ATACTCGC | 0.282
GGGCTCAA | -0.08
GGATCCAC | -0.0356
GATGCCGC | -0.0812
CAGAGGTA | 0.00443
GGCGTAGA | 0.0225
CGAGCTCG | 0.334
CTAACACC | -0.0983
AATTCGCA | 0.123
ACTAGCGA | 0.216
AAACGGCA | 0.294
ATACATCA | 0.0752
GTCTTCAA | -0.182
CCTTCAGC | -0.176
CAGACATA | -0.00071
CCGCGGAG | 0.0769
AACTTTGG | 0.0216
ATGTTGAG | -0.189
ACCACATC | 0.0344
GCAATTCC | -0.0476

Sequence | PBM E-score
CCAAATCG | 0.0302
CCTCAGAC | -0.0702
ACAATACC | -0.0761
GGGGTACA | -0.275
AACAGGTG | -0.0793
GCACCCCC | -0.0746
ACCGTGAT | -0.0954
ACCTGACG | -0.179
ACCGGGTG | -0.0946
TGGTCACA | 0.0168
GGGGAACC | -0.105
AGCAACCT | -0.109
CTGACCAA | 0.0122
AGCAGTAC | -0.0397
ACCACGTC | -0.207
CTCTCGTA | 0.457
AGCCCCGC | 0.0155
GATGCCCC | -0.223
AAGTGGCA | -0.177
GATTAGCA | -0.0762
CTGCCTCA | -0.257
TCGCAACA | 0.0491
ATTGACCA | 0.0863
CGCTAATA | 0.1
GTTAAACA | 0.00429

Sequence | PBM E-score
GCAATGGA | -0.101
ACTACCGG | -0.151
AAACAAGT | -0.166
CTGGGGCC | -0.264
AACCACCA | -0.122
AACGCTTC | 0.0846
ACCGCGGG | 0.0921
CTAAAGAA | -0.0968
AGCCGCAT | 0.0755
ACATACTA | 0.123
CTCTAGAC | -0.179
ATGAAAAG | -0.252
CACCATTA | 0.043
ACTGCTTA | -0.168
CATCTCGG | 0.137
ATATGACG | 0.0667
AAATCGTC | 0.127
ACCACAGA | -0.0159
AGAGCCAG | -0.273
ACGACAAC | 0.366
AGCGCTTA | 0.105
ATGTGAAC | -0.114
